Assay results from PubChem BioAssay AID485281 (National Center for Advancing Translational Sciences (NCATS), 2010).
The campaign covered roughly 350,000 compounds. About 260 (0.074%) were called active. The inconclusive results got no clear call from the source; some entries with a clear call stand among them for comparison. The call rests on the fitted dose curve; in most records, active means well fitted inhibition curve with a large enough effect; inconclusive means small, poorly fitted or top-dose-only effect; inactive means no such curve, though single readings can be large or run the other way. A potency beside an inconclusive call is a rough fit, not a confirmed value.

target: Ferritin light chain (Equus caballus) (UniProt P02791); assay: qHTS Assay for Identification of Novel General Anesthetics; details: apoferritin/1-aminoanthracene competitive binding, fluorescence; series mostly up to 77.5 µM; further: nearly all actives have a fitted effect of over 20% in size
Method in brief: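 10 uM apoferritin + 50% sat. 1-AMA, PBS; cpd 10 min RT; Ex380/Em535 endpoint; normalized to free probe vs complex; 4-param Hill fit; propofol titration as pos. ctrl.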
Potency means the concentration at half of the fitted maximal effect; tags describe the fitted curve by direction and shape.

UniProt P02791, sequence (P02791 whole entry, looked up): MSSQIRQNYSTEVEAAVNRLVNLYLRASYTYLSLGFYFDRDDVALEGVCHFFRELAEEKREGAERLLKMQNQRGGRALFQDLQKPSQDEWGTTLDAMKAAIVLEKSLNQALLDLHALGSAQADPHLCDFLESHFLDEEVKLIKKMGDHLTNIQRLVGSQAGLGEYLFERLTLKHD

Question: With `Oc1cccc(C(Nc2nccs2)c2ccc3cccnc3c2O)c1` (stereo not given) as the compound, how does the Potency read?
Answer: Its Potency is “inactive”.

Question: How did the Potency turn out when `COc1ccc(-c2nc(CS(=O)CC(=O)NCCC3=CCCCC3)c(C)o2)cc1` (stereo not given) was run?
Answer: Its Potency is inconclusive: 31.6 µM [inhibitor, partial curve].

Question: With `Cc1ccccc1OCc1nc2ccccc2n1C` as the compound, how does the Potency read?
Answer: The Potency was inconclusive: 28.2 µM [inhibitor, partial curve].

Question: How did the Potency turn out when `COCCn1c(SCC(=O)Nc2nnc(C)s2)nnc1-c1cc2ccccc2cc1O` was run?
Answer: The Potency was inconclusive: 39.8 µM [inhibitor, partial curve].

Question: How did the Potency turn out when `O=C(CSC1CCCCC1)Nc1ccccc1Br` was run?
Answer: Its Potency is inconclusive: 28.2 µM [inhibitor, single point].

Question: How did the Potency turn out when `CCOC(=O)c1c(C)sc2c1N(C(=O)CN(CC)CC)c1cc(Cl)ccc1S2` was run?
Answer: Its Potency is inconclusive: 31.6 µM [inhibitor, single point].

Question: For `Cc1ccc(NC(/C=C/N(C)C)=C/C(=O)C(F)(F)F)c(C)c1`, which Potency is on record?
Answer: Its Potency is inconclusive: 17.8 µM [inhibitor, partial curve].

Question: Which Potency does the source give for `COc1cccc(C(=O)NCC(=O)N/N=C/c2ccc3c(c2)OCO3)c1` here?
Answer: The Potency was inconclusive: 7.94 µM [inhibitor, partial curve].

Question: How did the Potency turn out when `Cc1cccc2sc(NC(=O)[C@H](C)N3C(=O)C4CC=CCC4C3=O)nc12` (stereo not given in full) was run?
Answer: Its Potency is inconclusive: 31.6 µM [inhibitor, partial curve].

Question: For `COC(=O)[C@@]1(Cc2ccc(F)cc2)[C@@H]2C(=CC(=O)[C@H]2CC(=O)C(=O)N(C)C)CN1C(=O)c1ccccc1`, which Potency is on record?
Answer: Its Potency is “inactive”.

Question: Which Potency does the source give for `Cc1ccccc1C(=NC(=O)c1ccccc1)c1ccccc1` here?
Answer: The Potency was inconclusive: 31.6 µM [inhibitor, partial curve].

Question: Which Potency does the source give for `O=Nc1c(O)n(Cc2ccc(Cl)c(Cl)c2)c2ccccc12` here?
Answer: Its Potency is inconclusive: 39.8 µM [inhibitor, partial curve].

Question: How did the Potency turn out when `Cc1ccc(NC(=O)c2cc(N3C(=O)CCC3=O)ccc2N2CCOCC2)cc1` was run?
Answer: Its Potency is “inactive”.

Question: For `CN1/C(=C\C=[N+](C)c2ccccc2)C(C)(C)c2ccccc21`, which Potency is on record?
Answer: Its Potency is “inactive”.

Question: With `Fc1ccccc1COc1cccc(/C=N/n2cnnc2)c1` as the compound, how does the Potency read?
Answer: Its Potency is inconclusive: 31.6 µM [inhibitor, partial curve].

Question: How did the Potency turn out when `COc1ccc(-c2noc(CSc3nnc(-c4ccc(Cl)cc4)n3C)n2)cc1OC` was run?
Answer: Its Potency is “inactive”.

Question: Which Potency does the source give for `CCOC(=O)N1CCN(C(=O)c2cc(COc3cccc(C(F)(F)F)c3)on2)CC1` here?
Answer: Its Potency is inconclusive: 35.5 µM [inhibitor, single point].

Question: For `CC(=Nc1ccccc1O)c1sc2ccccc2c1O`, which Potency is on record?
Answer: Its Potency is inconclusive: 50.1 µM [inhibitor, single point].

Question: Which Potency does the source give for `Cc1ccc(-c2csc(NC(=O)c3cccc(N4C(=O)CCC4=O)c3)n2)o1` here?
Answer: Its Potency is “inactive”.

Question: Which Potency does the source give for `Fc1cccc(Cl)c1CSC1=NCCS1` here?
Answer: Its Potency is inconclusive: 39.8 µM [inhibitor, partial curve].

Question: `Cc1cc(C)c(NC(=O)CSc2ncc(S(=O)(=O)c3ccc(C(C)(C)C)cc3)c(=O)[nH]2)c(C)c1` was tested. Which Potency did it give?
Answer: Its Potency is inconclusive: 11.2 µM [inhibitor, partial curve].

Question: How did the Potency turn out when `COCCn1c(=O)[nH]c(=O)c2cc(C(=O)c3cc(Cl)ccc3O)cnc21` was run?
Answer: The Potency was inconclusive: 20 µM [inhibitor, partial curve].

Question: With `COc1ccc(N2CCN(C(=S)NC(=O)c3cccs3)CC2)c([N+](=O)[O-])c1` as the compound, how does the Potency read?
Answer: Its Potency is inconclusive: 17.8 µM [inhibitor, partial curve].

Question: With `CCN(CC)C(=O)Cc1cn(C)c2ccccc12` as the compound, how does the Potency read?
Answer: Its Potency is inconclusive: 14.1 µM [inhibitor, partial curve].

Question: Which Potency does the source give for `Cn1c(SCc2ccc(Br)cc2)nnc1-c1cccs1` here?
Answer: The Potency was inconclusive: 50.1 µM [inhibitor, single point].

Question: Which Potency does the source give for `O=C(CCc1ccccc1)NNc1cc(N2CCCCC2)nc(N2CCCCC2)n1` here?
Answer: The Potency was “inactive”.

Question: For `Cc1ccc(NC(=O)CN2C(=O)CCc3cc(S(=O)(=O)N4CCCCC4)ccc32)cc1N(C)C`, which Potency is on record?
Answer: The Potency was inconclusive: 31.6 µM [inhibitor, single point].

Question: For `COc1cccc(/C=C/c2ccc3ccccc3n2)c1OC(C)=O`, which Potency is on record?
Answer: The Potency was inconclusive: 8.91 µM [inhibitor, partial curve].

Question: How did the Potency turn out when `O=C1c2ccccc2CN1CCSC(=S)N1CCSCC1` was run?
Answer: Its Potency is inconclusive: 44.7 µM [inhibitor, single point].

Question: For `O=C(CSc1nc(-c2cccs2)nc2cc(=O)[nH]n12)Nc1ccc(F)cc1`, which Potency is on record?
Answer: The Potency was “inactive”.

Question: With `O=c1c([N+](=O)[O-])cccn1Cc1ccc(F)cc1Cl` as the compound, how does the Potency read?
Answer: The Potency was inconclusive: 35.5 µM [inhibitor, single point].

Question: For `CCC(=O)Oc1ccc(NC(=O)CSCc2ccccc2)cc1`, which Potency is on record?
Answer: The Potency was inconclusive: 31.6 µM [inhibitor, single point].

Question: `Cc1ccc(C(=O)CCNc2cccc(Br)c2)o1` was tested. Which Potency did it give?
Answer: The Potency was inconclusive: 11.2 µM [inhibitor, partial curve].

Question: How did the Potency turn out when `COc1ccc(-c2nc3scc(CCNC(=O)Cc4ccc(F)cc4)n3n2)cc1` was run?
Answer: The Potency was “inactive”.

Question: Which Potency does the source give for `O=C1NC2(CCCCC2)Cc2ccccc21` here?
Answer: Its Potency is inconclusive: 35.5 µM [inhibitor, single point].

Question: How did the Potency turn out when `O=C(C/C=N/OCc1ccc(Cl)cc1Cl)c1ccc(Cl)cc1` was run?
Answer: The Potency was inconclusive: 35.5 µM [inhibitor, partial curve].

Question: `Cc1cc(C)cc(NC(=O)C2CC3CCC2C3)c1` (stereo not given) was tested. Which Potency did it give?
Answer: The Potency was inconclusive: 25.1 µM [inhibitor, partial curve].

Question: `Nc1ccc(NS(=O)(=O)c2ccccc2)cc1` was tested. Which Potency did it give?
Answer: The Potency was inconclusive: 31.6 µM [inhibitor, single point].

Question: With `CCCOC1CCCN(C(=O)c2cc(COc3ccc(F)c(F)c3)on2)C1` (stereo not given) as the compound, how does the Potency read?
Answer: The Potency was inconclusive: 15.8 µM [inhibitor, partial curve].

Question: Which Potency does the source give for `Cc1cccc(N2CCN(S(=O)(=O)c3ccc(S(=O)(=O)N4CCCC4)cc3)CC2)c1C` here?
Answer: The Potency was “inactive”.

Question: Which Potency does the source give for `COC(=O)/C(=C/Nc1cccc2ccccc12)[N+](=O)[O-]` here?
Answer: The Potency was inconclusive: 22.4 µM [inhibitor, partial curve].

Question: `NC12CCc3c(no[n+]3[O-])C1(O)CC(c1ccccc1)=[N+]2[O-]` (stereo not given) was tested. Which Potency did it give?
Answer: Its Potency is “inactive”.

Question: `Cc1nc(-c2ccc3c(c2)OCO3)cs1` was tested. Which Potency did it give?
Answer: Its Potency is inconclusive: 28.2 µM [inhibitor, partial curve].

Question: How did the Potency turn out when `O=C(N=Nc1c(O)[nH]c2ccccc12)c1ccc2c(c1)OCO2` was run?
Answer: The Potency was “inactive”.

Question: With `Cc1ccc(NC(=O)CC2CCCC2)c(Br)c1` as the compound, how does the Potency read?
Answer: Its Potency is inconclusive: 39.8 µM [inhibitor, single point].
